The IC50 comes from the fitted curve, where viability falls to half of the control; a limit (>, <) means that the fit lies beyond the doses tested. AUC, from the same fit, is the share of area under the viability curve across the 256-fold dose range; the more sensitive the line, the further below 1. An inferred top dose is not printed in the source and was worked back from the curve model.
Columns and labels:
Experiment in all cases: Viability of human cancer cell lines after 72 h of drug (GDSC screen)
FH535 = compound: Cc1cc([N+](=O)[O-])ccc1NS(=O)(=O)c1cc(Cl)ccc1Cl [FH535]; details: top dose 32 µM; top dose inferred
Method: (§1)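 Human cancer cell lines in 384-well plates, medium with 10% serum, drug for 72 h over a 256-fold dose range (nine 2-fold or five 4-fold steps up to the top dose). Adherent lines were fixed and stained with the nucleic acid dye Syto60, suspension lines read with resazurin; signal relative to control wells, capped at 0 and 100%. One two-parameter sigmoid per drug and line, fitted in a mixed model over all curves with the slope shared within a line.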

AT-7519 = compound: O=C(NC1CCNCC1)c1n[nH]cc1NC(=O)c1c(Cl)cccc1Cl [AT-7519]; details: top dose 10.24 µM; top dose inferred
Method: as §1

XMD14-99 = compound: COc1cc(N2CCN(C)CC2)ccc1Nc1nc(N)c(C(=O)c2c(Cl)cccc2Cl)s1 [XMD14-99]; details: top dose 10.24 µM; top dose inferred
Method: as §1

Row | Cell Line | AUC (FH535) | IC50 (FH535) | AUC (AT-7519) | IC50 (AT-7519) | AUC (XMD14-99) | IC50 (XMD14-99)
1 | KYSE-70 (oesophagus, adherent) | 0.562 | 3.01 µM | 0.798 | 5.39 µM | 0.984 | > 10.2 µM
2 | G-292 Clone A141B1 (osteosarcoma, adherent) | 0.798 | 27.6 µM | 0.924 | > 10.2 µM | 0.948 | > 10.2 µM
3 | CHL-1 (melanoma, adherent) | 0.451 | 1.49 µM | 0.882 | 9.73 µM | 0.984 | > 10.2 µM
4 | RPMI-7951 (melanoma, adherent) | 0.806 | 15.7 µM | 0.466 | 0.519 µM | 0.953 | > 10.2 µM
5 | TT2609-C02 (thyroid, adherent) | 0.562 | 2.99 µM | 0.67 | 1.97 µM | 0.976 | > 10.2 µM
6 | H2369 (mesothelioma, adherent) | 0.53 | 2.42 µM | 0.819 | 6.08 µM | 0.986 | > 10.2 µM
7 | KMRC-20 (kidney, adherent) | 0.449 | 1.44 µM | 0.985 | > 10.2 µM | 0.983 | > 10.2 µM
8 | M14 (melanoma, adherent) | 0.904 | > 32 µM | 0.88 | > 10.2 µM | 0.985 | > 10.2 µM
9 | LN-405 (glioma, adherent) | 0.706 | 8.95 µM | 0.717 | 3.13 µM | 0.984 | > 10.2 µM
10 | PANC-02-03 (pancreas, adherent) | 0.693 | 7.81 µM | 0.692 | 2.49 µM | 0.982 | > 10.2 µM
11 | NCI-H2122 (lung adenocarcinoma, adherent) | 0.419 | 1.22 µM | 0.921 | > 10.2 µM | 0.988 | > 10.2 µM
12 | NCI-H2228 (lung adenocarcinoma, adherent) | 0.783 | 21.7 µM | 0.861 | > 10.2 µM | 0.863 | > 10.2 µM
13 | CHSA0108 (chondrosarcoma, adherent) | 0.764 | 13.4 µM | 0.509 | 0.681 µM | 0.968 | > 10.2 µM
14 | JHU-011 (head and neck, adherent) | 0.624 | 4.36 µM | 0.369 | 0.281 µM | 0.888 | > 10.2 µM
15 | 42-MG-BA (glioma, adherent) | 0.89 | > 32 µM | 0.85 | 8.59 µM | 0.985 | > 10.2 µM
16 | NCI-H522 (lung adenocarcinoma, adherent) | 0.51 | 2.14 µM | 0.519 | 0.73 µM | 0.984 | > 10.2 µM

Row | Cell Line | AUC (FH535) | IC50 (FH535) | AUC (AT-7519) | IC50 (AT-7519) | AUC (XMD14-99) | IC50 (XMD14-99)
17 | PA-TU-8988T (pancreas, adherent) | 0.459 | 1.55 µM | 0.634 | 1.5 µM | 0.987 | > 10.2 µM
18 | OVCAR-5 (ovary, adherent) | 0.817 | 22.7 µM | 0.497 | 0.627 µM | 0.977 | > 10.2 µM
19 | PCI-15A (head and neck, adherent) | 0.643 | 4.98 µM | 0.511 | 0.685 µM | 0.976 | > 10.2 µM
20 | PL18 (pancreas, adherent) | 0.802 | 15.6 µM | 0.825 | 6.11 µM | 0.986 | > 10.2 µM
21 | MDA-MB-436 (breast, adherent) | 0.415 | 1.1 µM | 0.961 | > 10.2 µM | 0.983 | > 10.2 µM
22 | SK-OV-3 (ovary, adherent) | 0.688 | 7.79 µM | 0.489 | 0.594 µM | 0.979 | > 10.2 µM
23 | CAL-72 (osteosarcoma, adherent) | 0.71 | 8.84 µM | 0.984 | > 10.2 µM | 0.984 | > 10.2 µM
24 | ESS-1 (endometrium, adherent) | 0.668 | 5.56 µM | 0.861 | 7.29 µM | 0.985 | > 10.2 µM
25 | H513 (mesothelioma, semi-adherent) | 0.433 | 1.26 µM | 0.938 | > 10.2 µM | 0.979 | > 10.2 µM
26 | ABC-1 (lung adenocarcinoma, adherent) | 0.584 | 3.56 µM | 0.586 | 1.16 µM | 0.983 | > 10.2 µM
27 | RT-112 (bladder, adherent) | 0.665 | 6 µM | 0.464 | 0.508 µM | 0.981 | > 10.2 µM
28 | KYSE-180 (oesophagus, adherent) | 0.598 | 3.66 µM | 0.487 | 0.592 µM | 0.988 | > 10.2 µM
29 | CHSA8926 (chondrosarcoma, adherent) | 0.836 | > 32 µM | 0.689 | 2.73 µM | 0.97 | > 10.2 µM
30 | BEN (non-small cell lung carcinoma, adherent) | 0.509 | 2.12 µM | 0.914 | > 10.2 µM | 0.982 | > 10.2 µM
31 | NCI-H2347 (lung adenocarcinoma, adherent) | 0.669 | 6.59 µM | 0.717 | 3.06 µM | 0.978 | > 10.2 µM
32 | MOG-G-UVW (glioma, adherent) | 0.572 | 3.13 µM | 0.516 | 0.709 µM | 0.985 | > 10.2 µM

From the supplement of paper PMC4967469
